Data as given in PubChem BioAssay AID686979 (National Center for Advancing Translational Sciences (NCATS), 2013).
Hit rate of the full screen: of about 420,000 compounds, about 50,000 (12%) were called active. This list was built around the results that the source calls inconclusive (neither active nor inactive); the mix of calls is not that of the screen. Calls come from the whole dose curve; as a rule, active = well fitted inhibition curve with a large enough effect; inconclusive = small, poorly fitted or top-dose-only effect; inactive = flat fitted curve, though single readings scatter. Potencies of inconclusive entries are left out as doubtful fits.

assay: qHTS for Inhibitors of human tyrosyl-DNA phosphodiesterase 1 (TDP1): qHTS in cells in presence of CPT; conditions: chicken DT40 Tdp1-/-;hTDP1 cells + 20 nM CPT, ATP luminescence, 48 h; series mostly up to 46.2 µM; note: nearly all actives have a fitted effect of over 55% in size
Procedure, shortened: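 Chicken DT40 Tdp1-/- cells complemented with human TDP1, 400 cells/well, exposed to compounds plus 20 nM camptothecin for at least 48 h at 37 C; viability read as ATP content by CellTiter-Glo luminescence.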
Potency is the fitted concentration of half-maximal effect; tags give direction and shape of the fitted curve.

| Compound | Potency |
| --- | --- |
| CN(CCOc1ccc(F)cc1)Cc1ccccc1 | inactive |
| Cc1oc2cc3oc(=O)c(CCC(=O)N4C[C@H]5C[C@@H](C4)c4cccc(=O)n4C5)c(C)c3cc2c1C | inconclusive [inhibitor, single point] |
| CCOC(=O)c1c(C)[nH]c(C)c1-c1ccccc1OC | inactive |
| Cc1cccn2c(=O)c(C(=O)NC3CCCCC3)c(O)nc12 | active: 18.4 µM |
| Cc1ccc(OCCn2cc(/C=C3\C(=O)NN(c4ccccc4)C3=O)c3ccccc32)cc1 | active: 16.4 µM |
| CCOC(=O)c1sc(=S)n(CC)c1N | inactive |
| Cc1ccc(C(=O)N2CCN(c3ccc(F)cc3)CC2)cc1S(=O)(=O)N1CCCCC1 | active: 29.1 µM |
| CCC(C)(C)NC(=O)CN(C(=O)CCC(=O)Nc1cc(C)ccn1)c1ccc2c(c1)OCCO2 | inactive |
| O=C(CC1N=C2c3ccccc3N=C(SCc3cccc(Cl)c3)N2C1=O)NCc1ccc2c(c1)OCO2 (centres undefined) | inconclusive [inhibitor, single point] |
| Cc1ccc(C(=O)/C=C/c2ccccc2[N+](=O)[O-])cc1 | inconclusive [inhibitor, single point] |
| CC(=O)N1CCC(C(=O)NCCOc2ccc(C)cc2)CC1 | inactive |
| O=C(c1cc2nc(-c3ccco3)cc(C(F)(F)F)n2n1)N1CCN(c2ccccc2)CC1 | inconclusive [inhibitor, single point] |
| O=C(CSc1ccccc1)NCC1(N2CCCCC2)CCCCC1 | inconclusive [inhibitor, single point] |
| CCN1C(=O)[C@H]2[C@H]3CN=C(SCc4ccc(Cl)cc4)N3[C@@](CC)(C(=O)OC)[C@H]2C1=O | inconclusive [inhibitor, single point] |
| COc1cc2nc(NC(=O)c3ccc(S(=O)(=O)N4CCOCC4)cc3)sc2cc1OC | inconclusive [inhibitor, full curve, poor fit] |
| CCc1ccc(Nc2ncccc2C#N)cc1 | inactive |
| CC[C@@H](C)[C@@H]1CN([C@@H](C)CN2CCC[C@H]2CN2C(N)=NC[C@H]2C(C)C)C(=N)N1CCc1ccc(Cl)c(Cl)c1 | inconclusive [inhibitor, single point] |
| COc1ccc(-c2cccc(-c3cc(=O)oc4cc5c(cc34)OCO5)c2)cc1 | inconclusive [inhibitor, single point] |
| COC(=O)c1ccccc1NC(=O)NC1CCN(Cc2ccccc2)CC1 | inconclusive [inhibitor, single point] |
